Reference: PMC6919601, “Identification of Plasmodium dipeptidyl aminopeptidase allosteric inhibitors by high throughput screening” (PLoS ONE, 2019)
Several values for one entry are separate records, joined by “and”; a condition that tells them apart may be missing. Equal entries are not always repeated. Screen size: about 110,000 compounds; about 230 (0.21%) showed an effect of 50% or more. Some of the results follow.

target: DPAP1 (Plasmodium falciparum, UniProt Q8IIJ9); experiment: primary screen, percent inhibition; read by cleavage of a fluorogenic dipeptide substrate; higher = more effect of the substance; set-up: species or system P. falciparum D10 trophozoite lysates; single well
Sequence (Q8IIJ9 whole entry, looked up): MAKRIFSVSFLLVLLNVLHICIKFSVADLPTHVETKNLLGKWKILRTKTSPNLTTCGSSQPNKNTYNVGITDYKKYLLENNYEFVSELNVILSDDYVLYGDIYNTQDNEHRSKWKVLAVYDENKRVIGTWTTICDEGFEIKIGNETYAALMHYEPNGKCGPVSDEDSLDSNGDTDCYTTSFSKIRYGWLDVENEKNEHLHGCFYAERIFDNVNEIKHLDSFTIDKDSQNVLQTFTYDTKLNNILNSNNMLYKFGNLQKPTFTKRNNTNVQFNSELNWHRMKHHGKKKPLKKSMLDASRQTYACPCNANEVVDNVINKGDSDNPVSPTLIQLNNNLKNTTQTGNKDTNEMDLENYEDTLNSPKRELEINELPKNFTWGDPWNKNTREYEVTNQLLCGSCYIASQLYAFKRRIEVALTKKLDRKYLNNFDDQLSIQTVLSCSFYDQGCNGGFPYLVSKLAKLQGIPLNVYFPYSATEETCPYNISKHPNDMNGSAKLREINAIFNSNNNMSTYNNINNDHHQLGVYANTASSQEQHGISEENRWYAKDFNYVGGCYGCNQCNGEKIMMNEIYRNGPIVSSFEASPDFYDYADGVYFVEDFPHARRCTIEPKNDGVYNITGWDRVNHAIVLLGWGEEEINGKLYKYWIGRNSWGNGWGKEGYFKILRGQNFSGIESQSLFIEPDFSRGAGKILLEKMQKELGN
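Also: 30 min substrate incubation versus DMSO and 10 µM JCP410 controls.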

SMILES | % Inhibition @ 10 uM
O=C1NCCCc2nc(N3CCOCC3)sc21 | 0.392%
CCN1CCCC1CNC(=O)Cn1ncc2c3ccccc3n(C)c2c1=O (centres unmarked) | -3.67%
CCO/C(O)=C1\C(C)=NC2=C(C(=O)c3ccccc32)C1c1ccc2c(c1)OCO2 (centres unmarked) | 2.3%
Cc1ccc(C#N)c(SC(C)c2ccccc2)n1 (centres unmarked) | 13.6%
COC(=O)c1ccc(CSc2ccccc2C)o1 | 5.07%
c1ccc(C2CCC(Nc3ccc4c(c3)OCO4)CC2)cc1 (centres unmarked) | 4.28%
Cc1ccc(-c2cc(C(F)F)nc(NCC3CCCO3)n2)cc1 (centres unmarked) | -1.73%
c1nc(CCNC2CCCCCC2)c[nH]1 | 1.57%
CCc1ccccc1NS(=O)(=O)c1cc(Cl)ccc1Cl | -1.22%
Cc1oc(C)c2c(=O)cc(-c3ccc4c(c3)OCO4)cc(OC(=O)c3ccccc3)c12 | 6.85%
CCOC(=O)c1c(N2C(=O)c3ccccc3C2=O)sc(C)c1C | 1.08%
COc1ccc(-n2nnnc2SCC(=O)Nc2nccs2)cc1 | -1.6%
Cn1c(-c2ccccc2)cc(=O)c2ccccc21 | -1.96%
CN(Cc1ccco1)C(=O)c1nn(C)c2c1CSc1ccccc1-2 | 1.68%
Cc1ccccc1S(=O)(=O)Cc1ccc(C(=O)NCc2cccs2)o1 | 3.77%
C/C(Cl)=C/Cn1c(SCCC(C)C)nc2c1c(=O)[nH]c(=O)n2C | 8.62%
CN(Cc1cnn(C)c1)C(=O)C1CCCCC1C(=O)O (centres unmarked) | -2.76%
c1ccc(C2CCC(NCCCn3ccnc3)CC2)cc1 (centres unmarked) | 3.48%
O=C(c1ccc([N+](=O)[O-])cc1)N1CCN(c2ccc(F)cc2)CC1 | 6.6%
CC1CCN(c2oc(COc3cccc(Cl)c3)nc2C#N)CC1 | -8.55%
Cc1ccc(S(=O)(=O)NCCC2CCCN2C)cc1 (centres unmarked) | 4.32%
CCn1cc(C(=O)N2CC(C)CC(C)C2)c2cc(OC)c(OC)cc2c1=O (centres unmarked) | 1.23%

SMILES | % Inhibition @ 10 uM
CCCOc1ccccc1C1NC(=O)NC(C)=C1C(=O)OC(C)C(C)(C)C (centres unmarked) | 4.35%
CNC(=O)CCc1cn(Cc2ccccc2C)c2ccccc12 | 0.581%
COc1ccc(-c2csc(N3C(=O)c4ccc(OC)c(OC)c4C3=O)n2)cc1 | 15.2%
CC(C)N1C(=O)c2ccc(N3C(=O)c4ccc(Br)cc4C3=O)cc2C1=O | 9.02%
COc1ccc2c(c1)OC1(C)CC2C(S(=O)(=O)c2ccc(C(C)(C)C)cc2)C(=O)N1 (centres unmarked) | -0.72%
CCC(C)NC(=O)CSc1cc(C)nc2c(-c3ccccc3OC)c(C)nn12 (centres unmarked) | -1.7%
Nn1c(CSCCc2ccccc2)nnc1CSCCc1ccccc1 | -2.5%
CCOc1cc2c(cc1OCC)C(c1ccccc1OC)NCC2 (centres unmarked) | 3.29%
Cc1ccccc1C(=O)NCCNC(=O)c1ccccc1C | 1.93%
Cc1ccc(C)c(N2CCN(C(=O)c3csc4ccccc34)CC2)c1 | -1.41%
COc1cc2nc(C)sc2cc1SC | 0.00178%
Cc1cc(C(F)(F)F)n2ncc(C(=O)N3CCCCCC3)c2n1 | 6.5%
CCCCn1c(-c2ccc(OCC)cc2)cnc1NCc1cc(OC)c(O)c(OC)c1 | 2.31%
CC(C)Oc1ccc(/C=C2/Sc3ccccc3C2=O)cc1 | -5.96%
CC1CCN(S(=O)(=O)c2cccc3nonc23)CC1 | 2.65%
N#CC1=C(N)OC2=C(C(=O)CC(c3ccccc3)C2)C1c1cccc(Cl)c1 (centres unmarked) | 11.3%
CC(C)c1ccc(C2c3c(-c4ccccc4O)n[nH]c3C(=O)N2CCCO)cc1 (centres unmarked) | 2.02%
Cc1cccc(-c2nnn3c2nc(O)c2ccccc23)c1 | -7.62%
O=C(CCn1ccc2cc(S(=O)(=O)N3CCCC3)ccc21)NCc1cccnc1 | -0.846%
C/C=C/COC(=O)C1=C(C)NC(=O)NC1c1ccccc1 (centres unmarked) | -2.2%
CCC(=O)N(c1ccccc1)C1CC(C)Nc2ccccc21 (centres unmarked) | -2.12%
COc1ccc(C(=O)Nc2cc(C(F)(F)F)ccc2Br)cc1[N+](=O)[O-] | -6.18%

SMILES | % Inhibition @ 10 uM
O=C(c1ccc(C(=O)N2CCc3ccccc3C2)cc1)N1CCc2ccccc2C1 | -2.78%
CC1(C(=O)Nc2nc3ccccc3s2)Cc2ccccc2C(=O)O1 (centres unmarked) | -2.67%
O=C(N/C(=C\c1cn(-c2ccccc2)nc1-c1ccccc1)C(=O)N1CCOCC1)c1ccccc1 | -4.67%
O=C(O)c1ccccc1SCC(=O)N1CCCCC1 | 5.38%
COCc1cc(C)nc(SCC(=O)Nc2cccc(C)c2)c1C#N | 6.29%
Cc1nc2sccn2c(=O)c1S(=O)(=O)N1CCN(C2CCCCC2)CC1 | 3.5%
CCc1ccc(OCC(=O)N(CC)c2ccccc2)cc1 | -1.89%
Cn1c(=O)c2c(nc3n(-c4ccc5c(c4)OCO5)c(-c4ccccc4)cn23)n(C)c1=O | 1.58%
CCOc1ccc(C(=O)NCc2ccc(C)cc2)cc1 | -1.82%
COC(=O)c1ccc(-c2ccc(CNCCNC(=O)c3nonc3N)o2)cc1 | 3.27%
C=CCc1cc(C)ccc1OCC(O)CN1CCCCC1 (centres unmarked) | 0.389%
O=[N+]([O-])c1ccc(O)c([C@H]2NCC[C@@]3(O)CCCC[C@H]23)c1 | -4.01%
O=C(Cc1ccc(-n2cccc2)cc1)NCc1cccs1 | 2.8%
COc1ccc(OC)c(/C=c2\sc3nc(-c4ccc(OC)c(OC)c4)nn3c2=O)c1 | -1.18%
CN1C(=O)/C(=C/c2ccc(-c3ccc(C(=O)O)cc3)o2)S/C1=N/c1ccc(C(=O)O)cc1 | 3.86%
COC(=O)c1cc(C)c(Br)c([N+](=O)[O-])c1 | 0.968%
Cc1ccc(-n2nnc(-c3nsc(NC(=O)c4ccccc4)n3)c2C)cc1Cl | -10.3%
Cc1sc(NC(=O)C2CCCCC2C(=O)O)c(C(N)=O)c1-c1ccc(C(C)C)cc1 (centres unmarked) | -0.318%
COc1cccc(/C=c2/sc3nc(/C=C/c4ccc(Cl)cc4)nn3c2=O)c1 | 3.25%
O=C(O)CCc1c(-c2ccc(Br)cc2)nc2ccccn12 | 2.38% and 4.31%
COc1ccc(S(=O)(=O)N(CC(=O)NC2CC3CCC2C3)c2ccc(Cl)cc2)cc1 (centres unmarked) | -2.28%
